Assay results reported in paper PMC5814325.
Positions count from the first letter of the chain named. Numbers in names are those of the source. These are yes or no findings as the source states them, for the method shown. Binding seen in cells or lysates may run through a third protein. Some entries that bind do so weakly or less than the wild type. Sequences can lack the tags named with a protein. One block for each binder: values may come before it.

By UniProt entry, the sequences of proteins in these tests, tags left out. Residues count along the entry.
UniProt P52799, residues 28-333: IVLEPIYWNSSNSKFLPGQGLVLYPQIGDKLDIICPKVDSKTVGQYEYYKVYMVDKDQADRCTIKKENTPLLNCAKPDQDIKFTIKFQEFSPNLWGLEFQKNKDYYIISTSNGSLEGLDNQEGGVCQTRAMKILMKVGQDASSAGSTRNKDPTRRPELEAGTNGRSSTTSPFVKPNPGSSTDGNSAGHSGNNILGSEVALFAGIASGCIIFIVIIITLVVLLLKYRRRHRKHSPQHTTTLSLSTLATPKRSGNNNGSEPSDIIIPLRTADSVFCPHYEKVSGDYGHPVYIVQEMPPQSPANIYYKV

Key:
[1] = biological target: T1, HA-tagged ephrinB1 (wild type) (UniProt P98172); assay: co-IP; HEK293T cells co-transfected; lysis buffer 20 mM Tris-HCl pH 8, 137 mM NaCl, 2 mM EDTA, 1% NP-40; IP with HA or Flag antibodies at 4 °C overnight, protein A/G-agarose; immunoblot
T1 sequence: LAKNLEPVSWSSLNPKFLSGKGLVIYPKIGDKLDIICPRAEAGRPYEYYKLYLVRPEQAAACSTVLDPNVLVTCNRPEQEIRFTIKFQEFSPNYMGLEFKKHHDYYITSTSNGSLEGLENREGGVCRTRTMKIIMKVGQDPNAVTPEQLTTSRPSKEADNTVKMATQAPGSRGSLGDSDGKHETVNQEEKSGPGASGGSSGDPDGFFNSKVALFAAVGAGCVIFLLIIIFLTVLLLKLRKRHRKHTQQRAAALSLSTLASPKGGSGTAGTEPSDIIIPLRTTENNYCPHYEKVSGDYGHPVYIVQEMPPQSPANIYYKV

[2] = biological target: T2, Flag-tagged RhoGDI2 (human) (UniProt P52566); assay: as above
T2 sequence: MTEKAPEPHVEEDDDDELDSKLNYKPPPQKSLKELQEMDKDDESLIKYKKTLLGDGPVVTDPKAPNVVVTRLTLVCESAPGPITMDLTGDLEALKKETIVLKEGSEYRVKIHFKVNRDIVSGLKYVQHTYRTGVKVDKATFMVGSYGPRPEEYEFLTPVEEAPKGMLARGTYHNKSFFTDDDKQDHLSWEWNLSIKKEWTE

[3] = biological target: T3, Flag-tagged RhoGDI1 G173V (human) (UniProt P52565); assay: as above
T3 sequence: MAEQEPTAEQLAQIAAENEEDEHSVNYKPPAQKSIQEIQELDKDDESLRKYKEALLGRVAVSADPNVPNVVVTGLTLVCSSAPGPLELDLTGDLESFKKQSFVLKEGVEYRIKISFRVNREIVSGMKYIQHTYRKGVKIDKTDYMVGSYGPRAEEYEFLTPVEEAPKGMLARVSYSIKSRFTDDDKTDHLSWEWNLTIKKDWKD

[4] = biological target: T4, Flag-tagged RhoGDI1 (wild type) (human) (UniProt P52565); assay: as above
T4 sequence: T3 sequence with V173G

[5] = biological target: T1, HA-tagged ephrinB1 (wild type); assay: co-IP; HEK293T cells co-transfected with increasing amounts of V5-RhoGDI1 G173V and constant HA-ephrinB1 and wt Flag-RhoGDI1; HA IP; competition
[6] = biological target: T5, HA-tagged ephrinB1 Δ335–342 (UniProt P98172); assay: co-IP; HEK293T cells co-transfected; lysis buffer 20 mM Tris-HCl pH 8, 137 mM NaCl, 2 mM EDTA, 1% NP-40; IP with HA or Flag antibodies at 4 °C overnight, protein A/G-agarose; immunoblot
T5 sequence: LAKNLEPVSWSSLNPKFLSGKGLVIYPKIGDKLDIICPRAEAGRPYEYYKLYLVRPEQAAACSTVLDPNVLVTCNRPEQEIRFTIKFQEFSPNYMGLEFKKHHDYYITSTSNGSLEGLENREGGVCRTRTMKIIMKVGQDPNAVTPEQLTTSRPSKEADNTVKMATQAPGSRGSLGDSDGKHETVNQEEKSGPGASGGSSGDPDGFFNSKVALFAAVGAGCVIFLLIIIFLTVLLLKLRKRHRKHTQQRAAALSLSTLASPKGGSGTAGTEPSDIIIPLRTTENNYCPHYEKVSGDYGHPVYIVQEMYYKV

[7] = biological target: T6, HA-tagged ephrinB3 (UniProt Q15768); assay: as above
T6 sequence: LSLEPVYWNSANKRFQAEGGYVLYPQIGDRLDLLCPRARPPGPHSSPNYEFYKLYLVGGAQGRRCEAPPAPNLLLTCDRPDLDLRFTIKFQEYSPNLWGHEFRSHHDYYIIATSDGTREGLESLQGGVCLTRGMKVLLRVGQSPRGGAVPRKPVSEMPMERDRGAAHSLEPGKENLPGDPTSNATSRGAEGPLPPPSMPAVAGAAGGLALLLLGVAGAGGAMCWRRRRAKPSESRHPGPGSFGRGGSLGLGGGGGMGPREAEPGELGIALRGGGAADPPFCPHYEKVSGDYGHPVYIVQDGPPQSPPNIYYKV

[8] = biological target: HA-tagged ephrinB2 (UniProt P52799); assay: as above
[9] = biological target: T7, HA-tagged Δ4-ephrinB1 (lacking the C-terminal four amino acids, the PDZ-binding motif) (UniProt P98172); assay: as above
T7 sequence: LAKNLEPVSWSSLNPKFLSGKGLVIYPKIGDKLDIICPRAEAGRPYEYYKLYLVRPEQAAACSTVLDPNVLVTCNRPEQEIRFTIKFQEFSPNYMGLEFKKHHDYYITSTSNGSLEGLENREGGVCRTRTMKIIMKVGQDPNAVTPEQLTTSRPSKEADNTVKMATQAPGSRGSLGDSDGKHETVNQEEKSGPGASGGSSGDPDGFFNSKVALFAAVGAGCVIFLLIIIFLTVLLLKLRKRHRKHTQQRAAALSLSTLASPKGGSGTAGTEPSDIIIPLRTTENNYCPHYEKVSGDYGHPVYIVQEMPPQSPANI

[10] = biological target: T8, HA-tagged ephrinB1 Δ327–334 (UniProt P98172); assay: as above
T8 sequence: T5 sequence with V301P, Y302Q, I303S, V304P, Q305A, E306N, M307I

[11] = biological target: T9, HA-tagged ephrinB1 Δ287–326 (UniProt P98172); assay: as above
T9 sequence: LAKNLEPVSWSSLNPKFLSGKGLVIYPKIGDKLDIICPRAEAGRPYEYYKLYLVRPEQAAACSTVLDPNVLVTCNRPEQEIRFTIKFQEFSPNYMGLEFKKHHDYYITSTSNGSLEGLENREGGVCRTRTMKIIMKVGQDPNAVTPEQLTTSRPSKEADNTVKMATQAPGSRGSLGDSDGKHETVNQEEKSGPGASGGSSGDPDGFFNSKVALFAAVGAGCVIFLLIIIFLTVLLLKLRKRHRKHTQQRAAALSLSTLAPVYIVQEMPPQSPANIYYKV

[12] = biological target: T10, HA-tagged ephrinB1 (wild type) in HeLa cells (UniProt P98172); assay: co-IP; HeLa cells co-transfected with HA-ephrinB1 and/or V5-RhoGDI1 G173V, treated with 2.5 μg/ml control Fc or EphB2-Fc for 15 min; IP and immunoblot; competition with endogenous RhoGDI1
T10 sequence: T1 sequence

[13] = biological target: T10, HA-tagged ephrinB1 (wild type) in HeLa cells; assay: co-IP; HeLa cells expressing ephrinB1 constructs (with Flag-RhoGDI1 or with endogenous RhoGDI1), serum-starved, treated with 2.5 μg/ml control Fc or EphB2-Fc for 30 min; IP of ephrinB1 (HA antibody) and immunoblot
[14] = biological target: T11, HA-tagged ephrinB1 Δ327–334 in HeLa cells (UniProt P98172); assay: as above
T11 sequence: T5 sequence with V301P, Y302Q, I303S, V304P, Q305A, E306N, M307I

- binding [1]: no binding
B1: Flag-tagged RhoGDI2 (protein, UniProt P52566 1-201)
chain: T2 sequence

- binding [2]: no binding
- binding [3]: binds
- binding [4]: binds
B2: HA-tagged ephrinB1 (wild type) (protein, UniProt P98172 28-346)
chain: T1 sequence

- binding [5]: binds
- binding [6]: binds
- binding [1]: binds
- binding [7]: no binding
- binding [8]: binds
- binding [9]: binds
- binding [10]: no binding
- binding [11]: binds
B3: Flag-tagged RhoGDI1 (wild type) (protein, UniProt P52565-1 1-204)
chain: T3 sequence with V173G

- binding [12]: binds
B4: V5-tagged RhoGDI1 G173V in HeLa cells (protein, UniProt P52565-1 1-204)
chain: T3 sequence

- binding [12]: binds
- binding [13]: binds
- binding [14]: no binding
B5: endogenous RhoGDI1 (HeLa) (protein, UniProt P52565 1-204)
chain: T3 sequence with V173G

- binding [13]: binds
B6: Flag-tagged RhoGDI1 (wild type) in HeLa cells (protein, UniProt P52565-1 1-204)
chain: T3 sequence with V173G

- binding [5]: binds
B7: V5-tagged RhoGDI1 G173V (protein, UniProt P52565-1 1-204)
chain: T3 sequence
